Some of the results follow.

This assay concerns the target T1, OsWOX13 (Oryza sativa, UniProt Q5QMM3 1-267).
T1 sequence: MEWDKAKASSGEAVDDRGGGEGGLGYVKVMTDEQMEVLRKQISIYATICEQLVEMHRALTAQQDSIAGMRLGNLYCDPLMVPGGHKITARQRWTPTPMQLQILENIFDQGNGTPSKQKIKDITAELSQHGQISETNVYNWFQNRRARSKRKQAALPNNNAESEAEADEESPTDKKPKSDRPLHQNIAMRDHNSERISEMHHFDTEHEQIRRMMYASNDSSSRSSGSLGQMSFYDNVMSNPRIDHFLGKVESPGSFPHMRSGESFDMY
Kind of assay: protein-binding microarray (RPBM); PBS, 2% BSA, 51.3 ng/ul salmon testes DNA, 50 uM zinc acetate, 200 nM TF, 25 C, 1 h; high values mean tight binding. Particulars: protein: recombinant; tags: N-terminal polyhistidine and DsRed monomer fusion (pET32a); label: CyDye5-dUTP incorporated in the synthesized complementary strand; 3' TTTTT single-stranded linker to array surface; dsDNA, one strand shown. The method, boiled down: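 Using Ni–NTA, transcription factors fused N-terminally to polyhistidine and DsRed were purified after expression in E. coli BL21-CodonPlus. These were incubated at 200 nM with a blocked, double-stranded custom Agilent array for 1 h at 25 °C in a buffer containing 50 µM zinc acetate, and the array was washed. The binding signal is per-feature fluorescence intensity (arbitrary units) on an Axon 4000B scanner.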
For “GCTCTATGATTTGACAATGTAGTGCTACAGTAAACATTTGCGGAGTCACCTAGTGCAG”, the binding signal is 13900 fluorescence intensity (a.u.).

For “CAACATTGATTACGAGATGCTTTCTAATGGAAAATTATGTCGGAGTCACCTAGTGCAG”, the binding signal was 36000 fluorescence intensity (a.u.).

In the case of “AAAACAAATTATAGATTCTACCTGTAAACTGCGAGACGAACGGAGTCACCTAGTGCAG”, the binding signal is 17200 fluorescence intensity (a.u.).

“ATGTTCTTAGATTGATTAAGATTGTCAATTGATTACTCCACGGAGTCACCTAGTGCAG”: the binding signal is 60500 fluorescence intensity (a.u.).

Regarding “TCACCACTAATCATGCATCTCTATTCAGAATTTCAGAGCACGGAGTCACCTAGTGCAG”, the binding signal is 3790 fluorescence intensity (a.u.).

For the sequence “CCATACAAATCTCCGTCCATTAATGAAGAGAAGTCAAGTACGGAGTCACCTAGTGCAG”, the binding signal was 5390 fluorescence intensity (a.u.).

Consider “TCCTGATTTCGCCGCCACTTGTAGCATCTGCCCGTGGGGTCGGAGTCACCTAGTGCAG”, for which the binding signal was 5510 fluorescence intensity (a.u.).

As to “TTCGGGATTGAAGTTCCATCTACATGAAAGATGAGTTGCACGGAGTCACCTAGTGCAG”, the binding signal was 9960 fluorescence intensity (a.u.).

Consider “AGAGATTAGCTTCTGTTTTATGGTTCCCTTGTTATATTGGCGGAGTCACCTAGTGCAG”, for which the binding signal is 3910 fluorescence intensity (a.u.).

Consider “GCGCCCCTTAACTAATTAAAACCGGTCAGTCCTTCGGTGGCGGAGTCACCTAGTGCAG”, for which the binding signal was 4340 fluorescence intensity (a.u.).

As for “CCGTGATTAGTTCGGTGCGTGTAAAGGTAGTCTGCAACATCGGAGTCACCTAGTGCAG”, the binding signal was 35700 fluorescence intensity (a.u.).

With “TTTATGTGACTGATATTTAGGTCCTACTAACATATTTGACCGGAGTCACCTAGTGCAG”, the binding signal is 6340 fluorescence intensity (a.u.).

As to “TCTAAAATTAATCATCATCGATGAAAGTGATCGTGTCCAACGGAGTCACCTAGTGCAG”, the binding signal is 12800 fluorescence intensity (a.u.).

On to “CTTATATTTATCAATCAAAATTTAAAATTTCAACTTTAAACGGAGTCACCTAGTGCAG”, for which the binding signal is 20500 fluorescence intensity (a.u.).

In the case of “CCCATTGTAGCCAATCAAGAACAGAGATCGTAAGAGATTCCGGAGTCACCTAGTGCAG”, the binding signal was 6760 fluorescence intensity (a.u.).

For “TTGTATCATTACCTAATTAGAGCTAGCTCTGCCACCACTGCGGAGTCACCTAGTGCAG”, the binding signal is 4150 fluorescence intensity (a.u.).

Take “ACCATTAATTAGTATACTGTCCTATCCCCTAACTAAGCCACGGAGTCACCTAGTGCAG”: the binding signal was 30800 fluorescence intensity (a.u.).

For “ATATGATCGTATAATTAAATGAGATCATGATTAAGTGGAGCGGAGTCACCTAGTGCAG”, the binding signal was 16400 fluorescence intensity (a.u.).

With “ACCAACTTGTGATTTATTATCATGTGGATTATGAAGAGTTCGGAGTCACCTAGTGCAG”, the binding signal was 9690 fluorescence intensity (a.u.).

Regarding “TTAAATTACTCATCCGATTTACAATCCGATTACACCGTTGCGGAGTCACCTAGTGCAG”, the binding signal is 16600 fluorescence intensity (a.u.).

In the case of “AAGGTACTAAAATTGACATTAAATTTAGGTATCTTTTAAACGGAGTCACCTAGTGCAG”, the binding signal was 6570 fluorescence intensity (a.u.).

For “TGTAATTATCATTTATTTTGTTGTGACTTGATTCATCATCCGGAGTCACCTAGTGCAG”, the binding signal is 19400 fluorescence intensity (a.u.).

“GATGATAAAACATGATTAATAATTTATGCGTGACTTATCTCGGAGTCACCTAGTGCAG”: the binding signal is 25500 fluorescence intensity (a.u.).

Consider “GTAATTGTAATCCTCCATACTTGTAAATGTTACTCGAACACGGAGTCACCTAGTGCAG”, for which the binding signal is 4020 fluorescence intensity (a.u.).

For the sequence “GTTAACTTTGTTAAATGTATTCTGTTCTGAGGATCCAAATCGGAGTCACCTAGTGCAG”, the binding signal was 5080 fluorescence intensity (a.u.).

In the case of “GAAATTAATTAATCAATCGATGCGAACTTTTGCATCTACACGGAGTCACCTAGTGCAG”, the binding signal is 45100 fluorescence intensity (a.u.).

As for “GGGACTAAATTTAGTCCCTCTCACAAAAGTATAAGTCCCTCGGAGTCACCTAGTGCAG”, the binding signal is 4600 fluorescence intensity (a.u.).

Regarding “TTAATAAATTTAGATAGATATATATGTCTAGATTCATTAACGGAGTCACCTAGTGCAG”, the binding signal is 8700 fluorescence intensity (a.u.).

Regarding “CAGTTGATGAGATTTGCATCGTGCGATTCTTCTGATTGAGCGGAGTCACCTAGTGCAG”, the binding signal was 23900 fluorescence intensity (a.u.).

“TGGGAAATCATTTTCATTTCCAATTAGCCGAACATTGCATCGGAGTCACCTAGTGCAG”: the binding signal is 5420 fluorescence intensity (a.u.).

With “TTGTAACATGTTAATTACTCCATTAGCATGGATAATCAGACGGAGTCACCTAGTGCAG”, the binding signal is 16500 fluorescence intensity (a.u.).

On to “AACTTTTAAACTGCTAACAATAGATATATAAACTTACCCACGGAGTCACCTAGTGCAG”, for which the binding signal is 3640 fluorescence intensity (a.u.).

As for “GAGAATAAAGTGAGTGTGATTGGAGCCTAATAATTGCATTCGGAGTCACCTAGTGCAG”, the binding signal is 21100 fluorescence intensity (a.u.).

For the sequence “GCTTCAATGATTTCTGATTCTGTTGCTTCTCCCTCCTTCCCGGAGTCACCTAGTGCAG”, the binding signal was 10400 fluorescence intensity (a.u.).

For the sequence “ATATAATTGTAGTGTAATTACATTGTAACTTACATATAATCGGAGTCACCTAGTGCAG”, the binding signal was 13800 fluorescence intensity (a.u.).

Consider “ATCTGATTTGACAATGGACGTGACGGCCACCCGACCTCTCCGGAGTCACCTAGTGCAG”, for which the binding signal was 12900 fluorescence intensity (a.u.).

As for “AACTAATTTCTATATGTTGTTGTAACACGAGTTATACATCCGGAGTCACCTAGTGCAG”, the binding signal is 5450 fluorescence intensity (a.u.).

For “TAAGTAATTATTTATTCTTTTCATATCATTTGATTCATTGCGGAGTCACCTAGTGCAG”, the binding signal is 15400 fluorescence intensity (a.u.).

Turning to “TGTGATTGTGTTGCTACAAACATCGTAATATTTGAGAAATCGGAGTCACCTAGTGCAG”, the binding signal is 17800 fluorescence intensity (a.u.).

For the sequence “TAAATTACACGAAGATTAATATGCTACTGAAAATACTCCTCGGAGTCACCTAGTGCAG”, the binding signal was 5600 fluorescence intensity (a.u.).

As for “TACATGATTTATAAAGTATATATTACAAGTAAACTTATATCGGAGTCACCTAGTGCAG”, the binding signal is 7980 fluorescence intensity (a.u.).

With “ACGGTTAATTTTGCATTCAAACAGGGTTCACCAGCTACCCCGGAGTCACCTAGTGCAG”, the binding signal was 14300 fluorescence intensity (a.u.).

(Values after PMC7819943, “Rice protein-binding microarrays: a tool to detect cis-acting elements near promoter regions in rice”.)
